Test results published in paper PMC4974512.
These are yes or no findings as the source states them, for the method shown. In cells and extracts the contact can be indirect. Some entries that bind do so weakly or less than the wild type. For some of these results: Tags and fused reporters may be left off the sequences shown.

The chains behind the UniProt entries cited, without tags or fusion partners.
UniProt Q04206: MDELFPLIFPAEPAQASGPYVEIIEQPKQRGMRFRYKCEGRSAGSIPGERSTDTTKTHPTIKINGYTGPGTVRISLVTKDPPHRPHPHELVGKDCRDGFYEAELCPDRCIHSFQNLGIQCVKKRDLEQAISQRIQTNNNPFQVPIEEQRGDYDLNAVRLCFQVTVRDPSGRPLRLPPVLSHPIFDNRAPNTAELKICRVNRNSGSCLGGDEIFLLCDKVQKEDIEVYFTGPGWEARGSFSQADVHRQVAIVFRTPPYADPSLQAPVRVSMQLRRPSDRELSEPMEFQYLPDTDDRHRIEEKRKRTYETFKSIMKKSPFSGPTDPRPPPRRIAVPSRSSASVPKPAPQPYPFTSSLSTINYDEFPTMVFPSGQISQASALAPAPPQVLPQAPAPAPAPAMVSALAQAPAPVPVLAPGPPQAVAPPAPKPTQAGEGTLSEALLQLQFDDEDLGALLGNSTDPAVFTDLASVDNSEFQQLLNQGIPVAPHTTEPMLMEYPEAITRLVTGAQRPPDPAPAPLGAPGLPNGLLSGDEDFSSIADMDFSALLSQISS
UniProt P25963: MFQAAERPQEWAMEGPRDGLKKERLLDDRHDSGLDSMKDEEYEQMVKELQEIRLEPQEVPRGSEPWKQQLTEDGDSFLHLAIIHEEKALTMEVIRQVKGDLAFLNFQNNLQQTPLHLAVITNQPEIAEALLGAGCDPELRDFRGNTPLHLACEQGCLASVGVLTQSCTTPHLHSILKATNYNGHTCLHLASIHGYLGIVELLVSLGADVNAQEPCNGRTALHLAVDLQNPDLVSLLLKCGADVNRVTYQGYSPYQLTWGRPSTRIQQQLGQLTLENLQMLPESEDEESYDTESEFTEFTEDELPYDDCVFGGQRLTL

B1: C-terminal FLAG-tagged ANXA4 (cFLAG-ANXA4) (protein, UniProt P09525 1-319)
chain: MATKGGTVKAASGFNAMEDAQTLRKAMKGLGTDEDAIISVLAYRNTAQRQEIRTAYKSTIGRDLIDDLKSELSGNFEQVIVGMMTPTVLYDVQELRRAMKGAGTDEGCLIEILASRTPEEIRRISQTYQQQYGRSLEDDIRSDTSFMFQRVLVSLSAGGRDEGNYLDDALVRQDAQDLYEAGEKKWGTDEVKFLTVLCSRNRNHLLHVFDEYKRISQKDIEQSIKSETSGSFEDALLAIVKCMRNKSAYFAEKLYKSMKGLGTDDNTLIRVMVSRAEIDMLDIRAHFKRLYGKSLYSFIKGDTSGDYRKVLLVLCGGDD
B2: NF-κB subunit RelB, endogenous (protein, UniProt Q01201 1-579)
chain: MLRSGPASGPSVPTGRAMPSRRVARPPAAPELGALGSPDLSSLSLAVSRSTDELEIIDEYIKENGFGLDGGQPGPGEGLPRLVSRGAASLSTVTLGPVAPPATPPPWGCPLGRLVSPAPGPGPQPHLVITEQPKQRGMRFRYECEGRSAGSILGESSTEASKTLPAIELRDCGGLREVEVTACLVWKDWPHRVHPHSLVGKDCTDGICRVRLRPHVSPRHSFNNLGIQCVRKKEIEAAIERKIQLGIDPYNAGSLKNHQEVDMNVVRICFQASYRDQQGQMRRMDPVLSEPVYDKKSTNTSELRICRINKESGPCTGGEELYLLCDKVQKEDISVVFSRASWEGRADFSQADVHRQIAIVFKTPPYEDLEIVEPVTVNVFLQRLTDGVCSEPLPFTYLPRDHDSYGVDKKRKRGMPDVLGELNSSDPHGIESKRRKKKPAILDHFLPNHGSGPFLPPSALLPDPDFFSGTVSLPGLEPPGGPDLLDDGFAYDPTAPTLFTMLDLLPPAPPHASAVVCSGGAGAVVGETPGPEPLTLDSYQAPGPGDGGTASLVGSNMFPNHYREAAFGGGLLSPGPEAT
B3: NF-κB subunit cRel, endogenous (protein, UniProt Q04864 1-619)
chain: MASGAYNPYIEIIEQPRQRGMRFRYKCEGRSAGSIPGEHSTDNNRTYPSIQIMNYYGKGKVRITLVTKNDPYKPHPHDLVGKDCRDGYYEAEFGQERRPLFFQNLGIRCVKKKEVKEAIITRIKAGINPFNVPEKQLNDIEDCDLNVVRLCFQVFLPDEHGNLTTALPPVVSNPIYDNRAPNTAELRICRVNKNCGSVRGGDEIFLLCDKVQKDDIEVRFVLNDWEAKGIFSQADVHRQVAIVFKTPPYCKAITEPVTVKMQLRRPSDQEVSESMDFRYLPDEKDTYGNKAKKQKTTLLFQKLCQDHVETGFRHVDQDGLELLTSGDPPTLASQSAGITVNFPERPRPGLLGSIGEGRYFKKEPNLFSHDAVVREMPTGVSSQAESYYPSPGPISSGLSHHASMAPLPSSSWSSVAHPTPRSGNTNPLSSFSTRTLPSNSQGIPPFLRIPVGNDLNASNACIYNNADDIVGMEASSMPSADLYGISDPNMLSNCSVNMMTTSSDSMGETDNPRLLSMNLENPSCNSVLDPRDLRQLHQMSSSSMSAGANSNTTVFVSQSDAFEGSDFSCADNSMINESGPSNSTNPNSHGFVQDSQYSGIGSMQNEQLSDSFPYEFFQV
B4: NF-κB subunit p52, endogenous (protein, UniProt Q00653 1-454)
chain: MESCYNPGLDGIIEYDDFKLNSSIVEPKEPAPETADGPYLVIVEQPKQRGFRFRYGCEGPSHGGLPGASSEKGRKTYPTVKICNYEGPAKIEVDLVTHSDPPRAHAHSLVGKQCSELGICAVSVGPKDMTAQFNNLGVLHVTKKNMMGTMIQKLQRQRLRSRPQGLTEAEQRELEQEAKELKKVMDLSIVRLRFSAFLRASDGSFSLPLKPVISQPIHDSKSPGASNLKISRMDKTAGSVRGGDEVYLLCDKVQKDDIEVRFYEDDENGWQAFGDFSPTDVHKQYAIVFRTPPYHKMKIERPVTVFLQLKRKRGGDVSDSKQFTYYPLVEDKEEVQRKRRKALPTFSQPFGGGSHMGGGSGGAAGGYGGAGGGGSLGFFPSSLAYSPYQSGAGPMGCYPGGGGGAQMAATVPSRDSGEEAAEPSAPSRTPQCEPQAPEMLQRAREYNARLFGLA
B5: NF-κB p50 subunit, endogenous, P19838 1-433 (protein)
chain: MAEDDPYLGRPEQMFHLDPSLTHTIFNPEVFQPQMALPTDGPYLQILEQPKQRGFRFRYVCEGPSHGGLPGASSEKNKKSYPQVKICNYVGPAKVIVQLVTNGKNIHLHAHSLVGKHCEDGICTVTAGPKDMVVGFANLGILHVTKKKVFETLEARMTEACIRGYNPGLLVHPDLAYLQAEGGGDRQLGDREKELIRQAALQQTKEMDLSVVRLMFTAFLPDSTGSFTRRLEPVVSDAIYDSKAPNASNLKIVRMDRTAGCVTGGEEIYLLCDKVQKDDIQIRFYEEEENGGVWEGFGDFSPTDVHRQFAIVFKTPKYKDINITKPASVFVQLRRKSDLETSEPKPFLYYPEIKDKEEVQRKRQKLMPNFSDSFGGGSGAGAGGGGMFGSGGGGGGTGSTGPGYSFPHYGFPTYGGITFHPGTTKSNAGMKHG

Columns and labels:
[1] = biological target: T1, C-terminal FLAG-tagged ANXA4 (cFLAG-ANXA4) (human) (UniProt P09525); assay: pull-down; His-tag pull-down from nuclear extracts of GBC-SD or NOZ cells transfected with cFLAG-ANXA4 and/or His-p65; western blot with His, FLAG, p50 and IκBα antibodies
T1 sequence: B1 chain

[2] = biological target: T2, annexin A4 (ANXA4), endogenous (human (endogenous in GBC-SD and NOZ)) (UniProt P09525); assay: co-IP; immunoprecipitation of endogenous ANXA4 with an ANXA4 antibody (IgG as control) from extracts of GBC-SD and NOZ cells (non-transfected, scrambled control and ANXA4-knockdown clones); western blot of the immunoprecipitates
T2 sequence: B1 chain

His-tagged p65 (His-p65) = His-tagged p65 (His-p65) (UniProt Q04206); assay: pull-down; His-tag pull-down from nuclear extracts of GBC-SD or NOZ cells transfected with cFLAG-ANXA4 and/or His-p65; western blot with His, FLAG, p50 and IκBα antibodies
[3] = biological target: T3, C-terminal FLAG-tagged ANXA4 (cFLAG-ANXA4) (human), P09525; assay: as above; settings: remark: other sources report otherwise
T3 chain: B1 chain

binding [2] | also measured | Molecule
– | binding [1]: no binding | inhibitor of κB (IκBα), endogenous (from UniProt P25963 1-317)
binds | – | nuclear factor-κB (NF-κB) p65 subunit, endogenous (from UniProt Q04206 1-551)
– | binding (His-tagged p65 (His-p65)): binds | B1
no binding | – | B2
no binding | – | B3
no binding | – | B4
– | binding [3]: no binding | B5
